IC50 is the fitted dose that halves viability relative to control wells, and lower means more sensitive; a fit beyond the top or the lowest dose is shown as a bound at that dose. AUC is the area under the same curve over the 256-fold range up to the top dose, as a fraction; the more sensitive the line, the further below 1. Any top dose called inferred is not printed in the source and was worked back from the curve model.
What was measured:
Assay in all cases: Viability of human cancer cell lines after 72 h of drug (GDSC screen)
CCT007093 = compound: O=C1/C(=C/c2cccs2)CC/C1=C\c1cccs1 [CCT007093]; details: top dose 6.6 µM; top dose inferred
Procedure: (§1)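 Human cancer cell lines in 384-well plates, medium with 10% serum, drug for 72 h over a 256-fold dose range (nine 2-fold or five 4-fold steps up to the top dose). Adherent lines were fixed and stained with the nucleic acid dye Syto60, suspension lines read with resazurin; signal relative to control wells, capped at 0 and 100%. One two-parameter sigmoid per drug and line, fitted in a mixed model over all curves with the slope shared within a line.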

QL-XII-47 = compound: C=CC(=O)N1CCc2ccc(-n3c(=O)ccc4cnc5ccc(-c6cnn(C)c6)cc5c43)cc21 [QL-XII-47]; details: top dose 10.24 µM; top dose inferred
Procedure: as §1

KIN001-266 = compound: CCN1CCC(n2cc(CNc3cc(Cl)c4ncc(C#N)c(Nc5ccc(F)c(Cl)c5)c4c3)nn2)CC1 [KIN001-266]; details: top dose 20 µM; top dose inferred
Procedure: as §1

BAY 61-3606 = compound: COc1ccc(-c2cc3nccn3c(Nc3ncccc3C(N)=O)n2)cc1OC [BAY 61-3606]; details: top dose 8 µM; top dose inferred
Procedure: as §1

| Cell Line | AUC (CCT007093) | IC50 (CCT007093) | AUC (QL-XII-47) | IC50 (QL-XII-47) | AUC (KIN001-266) | IC50 (KIN001-266) | AUC (BAY 61-3606) | IC50 (BAY 61-3606) |
| --- | --- | --- | --- | --- | --- | --- | --- | --- |
| H2595 (mesothelioma, adherent) | 0.98 | > 6.6 µM | 0.839 | > 10.2 µM | 0.97 | > 20 µM | 0.898 | > 8 µM |
| H2722 (mesothelioma, adherent) | 0.975 | > 6.6 µM | 0.819 | 7.3 µM | 0.862 | > 20 µM | 0.727 | 2.54 µM |
| H2731 (mesothelioma, adherent) | 0.969 | > 6.6 µM | 0.967 | > 10.2 µM | 0.615 | 2.71 µM | 0.983 | > 8 µM |
| H2795 (mesothelioma, adherent) | 0.986 | > 6.6 µM | 0.567 | 0.973 µM | 0.877 | 19.5 µM | 0.916 | > 8 µM |
| H2803 (mesothelioma, adherent) | 0.979 | > 6.6 µM | 0.879 | > 10.2 µM | 0.918 | > 20 µM | 0.815 | 5.33 µM |
| H2804 (mesothelioma, adherent) | 0.97 | > 6.6 µM | 0.857 | 9.66 µM | 0.966 | > 20 µM | 0.825 | 5.46 µM |
| H2818 (mesothelioma, adherent) | 0.987 | > 6.6 µM | 0.951 | > 10.2 µM | 0.987 | > 20 µM | 0.976 | > 8 µM |
| H2869 (mesothelioma, adherent) | 0.973 | > 6.6 µM | 0.745 | 3.91 µM | 0.983 | > 20 µM | 0.879 | > 8 µM |
| H3118 (head and neck, adherent) | 0.951 | > 6.6 µM | 0.712 | 2.71 µM | 0.844 | 16.2 µM | 0.826 | 5.44 µM |
| H3255 (lung adenocarcinoma, adherent) | 0.938 | > 6.6 µM | 0.82 | 7.42 µM | 0.729 | 6.46 µM | 0.85 | 7.97 µM |
| H-EMC-SS (chondrosarcoma, adherent) | 0.979 | > 6.6 µM | 0.766 | 4.89 µM | 0.91 | > 20 µM | 0.77 | 3.97 µM |
| HA7-RCC (kidney, adherent) | 0.984 | > 6.6 µM | 0.731 | 3.15 µM | 0.824 | 13.6 µM | 0.93 | > 8 µM |
| HAL-01 (lymphoblastic leukaemia, suspension) | 0.98 | > 6.6 µM | 0.511 | 0.685 µM | 0.846 | 12.2 µM | 0.836 | 4.45 µM |
| HARA (lung squamous cell carcinoma, adherent) | 0.964 | > 6.6 µM | 0.594 | 1.21 µM | 0.883 | > 20 µM | 0.889 | > 8 µM |
| HC-1 (hairy cell leukaemia, suspension) | 0.987 | > 6.6 µM | 0.625 | 1.4 µM | 0.831 | 12 µM | 0.577 | 0.803 µM |
| HCC38 (breast, adherent) | 0.983 | > 6.6 µM | 0.85 | 8.75 µM | 0.849 | 16.8 µM | 0.968 | > 8 µM |
| HCC70 (breast, adherent) | 0.976 | > 6.6 µM | 0.871 | 9.31 µM | 0.762 | 7.01 µM | 0.744 | 2.46 µM |
| HCC202 (breast, adherent) | 0.98 | > 6.6 µM | 0.4 | 0.304 µM | 0.867 | > 20 µM | 0.818 | 7.08 µM |
| HCC1143 (breast, adherent) | 0.979 | > 6.6 µM | 0.862 | > 10.2 µM | 0.872 | > 20 µM | 0.952 | > 8 µM |
| HCC1187 (breast, suspension) | 0.934 | > 6.6 µM | 0.843 | 6.73 µM | 0.965 | > 20 µM | 0.907 | > 8 µM |
| HCC1395 (breast, adherent) | 0.981 | > 6.6 µM | 0.974 | > 10.2 µM | 0.86 | > 20 µM | 0.83 | 6.45 µM |
| HCC1419 (breast, adherent) | 0.964 | > 6.6 µM | 0.844 | > 10.2 µM | 0.977 | > 20 µM | 0.968 | > 8 µM |
| HCC1428 (breast, adherent) | 0.98 | > 6.6 µM | 0.893 | > 10.2 µM | 0.891 | > 20 µM | 0.988 | > 8 µM |
| HCC1500 (breast, adherent) | 0.974 | > 6.6 µM | 0.67 | 1.94 µM | 0.878 | > 20 µM | 0.968 | > 8 µM |

| Cell Line | AUC (CCT007093) | IC50 (CCT007093) | AUC (QL-XII-47) | IC50 (QL-XII-47) | AUC (KIN001-266) | IC50 (KIN001-266) | AUC (BAY 61-3606) | IC50 (BAY 61-3606) |
| --- | --- | --- | --- | --- | --- | --- | --- | --- |
| HCC1569 (breast, adherent) | 0.932 | > 6.6 µM | 0.714 | 3.21 µM | 0.958 | > 20 µM | 0.825 | 7.11 µM |
| HCC1806 (breast, adherent) | 0.989 | > 6.6 µM | 0.922 | > 10.2 µM | 0.849 | 13.2 µM | 0.918 | > 8 µM |
| HCC1937 (breast, adherent) | 0.981 | > 6.6 µM | 0.664 | 1.98 µM | 0.824 | 14.3 µM | 0.955 | > 8 µM |
| HCC1954 (breast, adherent) | 0.975 | > 6.6 µM | 0.366 | 0.257 µM | 0.944 | > 20 µM | 0.952 | > 8 µM |
| HCC2157 (breast, suspension) | 0.986 | > 6.6 µM | 0.923 | > 10.2 µM | 0.973 | > 20 µM | 0.883 | > 8 µM |
| HCC2218 (breast, suspension) | 0.978 | > 6.6 µM | 0.817 | 7.7 µM | 0.863 | > 20 µM | 0.882 | > 8 µM |
| HCC2998 (large intestine, adherent) | 0.978 | > 6.6 µM | 0.921 | > 10.2 µM | 0.883 | > 20 µM | 0.833 | 4.96 µM |
| HCC-15 (lung squamous cell carcinoma, adherent) | 0.965 | > 6.6 µM | 0.802 | 6.78 µM | 0.913 | > 20 µM | 0.976 | > 8 µM |
| HCC-44 (lung adenocarcinoma, adherent) | 0.986 | > 6.6 µM | 0.494 | 0.618 µM | 0.852 | 14.9 µM | 0.705 | 1.87 µM |
| HCC-56 (large intestine, adherent) | 0.987 | > 6.6 µM | 0.878 | > 10.2 µM | 0.877 | > 20 µM | 0.834 | 5.41 µM |
| HCC-827 (lung adenocarcinoma, adherent) | 0.981 | > 6.6 µM | 0.919 | > 10.2 µM | 0.822 | 14 µM | 0.929 | > 8 µM |
| HCE-4 (oesophagus, adherent) | 0.991 | > 6.6 µM | 0.82 | 4.82 µM | 0.99 | > 20 µM | 0.836 | 4.26 µM |
| HCT-15 (large intestine, adherent) | 0.949 | > 6.6 µM | 0.774 | 4.26 µM | 0.884 | > 20 µM | 0.801 | 4.18 µM |
| HCT-116 (large intestine, adherent) | 0.986 | > 6.6 µM | 0.438 | 0.438 µM | 0.801 | 9.17 µM | 0.806 | 3.83 µM |
| HD-MY-Z (Hodgkin lymphoma, adherent) | 0.986 | > 6.6 µM | 0.437 | 0.429 µM | 0.826 | 12.2 µM | 0.877 | > 8 µM |
| HDLM-2 (Hodgkin lymphoma, suspension) | 0.979 | > 6.6 µM | 0.834 | 6.52 µM | 0.984 | > 20 µM | 0.868 | 7.09 µM |
| HDQ-P1 (breast, adherent) | 0.983 | > 6.6 µM | 0.915 | > 10.2 µM | 0.858 | > 20 µM | 0.885 | > 8 µM |
| HEC-1 (endometrium, adherent) | 0.973 | > 6.6 µM | 0.931 | > 10.2 µM | 0.921 | > 20 µM | 0.855 | 6.03 µM |
| HEL (acute myeloid leukaemia, semi-adherent) | 0.992 | > 6.6 µM | 0.394 | 0.345 µM | 0.892 | 16.6 µM | 0.672 | 1.38 µM |
| HGC-27 (stomach, adherent) | 0.97 | > 6.6 µM | 0.638 | 1.44 µM | 0.872 | 14.3 µM | 0.718 | 1.85 µM |
| HH (T-cell leukaemia, suspension) | 0.955 | > 6.6 µM | 0.551 | 0.923 µM | 0.673 | 4.48 µM | 0.86 | > 8 µM |
| HL-60 (acute myeloid leukaemia, suspension) | 0.985 | > 6.6 µM | 0.763 | 3.34 µM | 0.884 | 17.7 µM | 0.887 | 7.37 µM |
| HLE (liver, adherent) | 0.975 | > 6.6 µM | 0.989 | > 10.2 µM | 0.869 | 16.7 µM | 0.745 | 2.39 µM |
| HMV-II (melanoma, adherent) | 0.98 | > 6.6 µM | 0.853 | > 10.2 µM | 0.982 | > 20 µM | 0.399 | 0.248 µM |

— the supplement of paper PMC4967469
